Experimental data taken from PubChem BioAssay AID1645882 (National Center for Advancing Translational Sciences (NCATS), 2021).
About 120 (0.75%) of roughly 16,000 compounds were called active. Not shown: some 4% with an inconclusive outcome. The call rests on the fitted dose curve; in most records, active means well fitted inhibition curve with a large enough effect; inconclusive means small, poorly fitted or top-dose-only effect; inactive means no such curve, though single readings can be large or run the other way. The list shows a part of the results.

Target: Rap guanine nucleotide exchange factor 3 (Homo sapiens) (UniProt O95398)
Chain of UniProt O95398 (O95398 whole entry, looked up): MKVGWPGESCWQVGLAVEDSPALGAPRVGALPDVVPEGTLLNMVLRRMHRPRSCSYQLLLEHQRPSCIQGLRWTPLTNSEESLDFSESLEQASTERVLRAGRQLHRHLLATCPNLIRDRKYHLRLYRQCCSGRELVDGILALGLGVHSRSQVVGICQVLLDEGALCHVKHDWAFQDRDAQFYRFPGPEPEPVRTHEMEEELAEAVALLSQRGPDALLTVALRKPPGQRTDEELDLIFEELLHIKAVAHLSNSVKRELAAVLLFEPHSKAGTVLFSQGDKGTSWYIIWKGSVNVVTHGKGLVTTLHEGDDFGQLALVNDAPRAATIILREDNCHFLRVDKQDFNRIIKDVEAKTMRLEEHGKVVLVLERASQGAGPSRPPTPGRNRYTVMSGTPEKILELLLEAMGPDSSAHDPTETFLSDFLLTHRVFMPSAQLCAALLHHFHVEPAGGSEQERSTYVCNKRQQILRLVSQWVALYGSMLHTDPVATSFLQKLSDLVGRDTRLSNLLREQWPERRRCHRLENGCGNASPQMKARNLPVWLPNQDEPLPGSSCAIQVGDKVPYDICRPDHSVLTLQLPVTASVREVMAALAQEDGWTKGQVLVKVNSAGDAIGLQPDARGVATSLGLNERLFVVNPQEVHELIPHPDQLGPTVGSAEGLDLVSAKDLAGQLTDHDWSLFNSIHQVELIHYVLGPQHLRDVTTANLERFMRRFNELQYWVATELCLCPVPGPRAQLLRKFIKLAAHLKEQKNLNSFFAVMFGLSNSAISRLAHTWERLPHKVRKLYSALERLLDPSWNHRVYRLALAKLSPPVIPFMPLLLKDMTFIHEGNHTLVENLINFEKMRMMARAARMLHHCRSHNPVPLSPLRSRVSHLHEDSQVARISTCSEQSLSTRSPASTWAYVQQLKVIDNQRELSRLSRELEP
Assay: Validation qHTS for antagonist of cAMP-regulated guanine nucleotide exchange factor 3 (EPAC1);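 further: plate controls were DMSO for no effect and ATA control for full effect; nearly all actives have a fitted effect of over 75% in size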
Conditions: EPAC1 Rap1B-BODIPY-GDP exchange, fluorescence; series mostly up to 150 µM; activity change, negative = inhibition: at the top concentration
Outline: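 Nucleotide exchange followed as fluorescence loss when BODIPY-GDP leaves Rap1B (480 nm excitation, 540 nm emission), read at 5 min intervals over 30 min. Reaction: 100 nM EPAC1, 250 nM RAP1B-BODIPY-GDP, 50 uM GDP; ATA and DMSO define normalization.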

Compound	activity change, negative = inhibition
O=C(NCCN1CCOCC1)c1cnn(-c2nccc(-c3ccccc3F)n2)c1C1CC1	inactive: 6.19%
CC(C)NC(=O)N1CC[C@@]2(CCCN(C(=O)c3cnccn3)C2)C1	inactive: 15.8%
O=c1c(CCc2ccccc2)nc2cnc(N3CCOCC3)nc2n1C[C@H]1CCCO1	inactive: 2.37%
CS(=O)(=O)N1CCC2(CCN(c3ccccn3)CC2)CC1	inactive: -2.26%
COc1cccc(CNC(=O)c2c(OC)cc(=O)n3c2CCN(C(=O)c2ccc(C)nc2)CC3)c1	inactive: 4.71%
O=C(O)c1ccccc1Nc1cccc(C(F)(F)F)c1	inactive: 13.8%
OCCc1ccccc1	inactive: -6.32%
O=C(c1ccc(F)cc1)C1CCN(CCn2c(=S)[nH]c3ccccc3c2=O)CC1	inactive: 12%
COc1cc(C/C=C\c2ccccc2)c(OC)cc1O	inactive: -5.85%
COc1ccc(CCCO[C@@H](Cn2ccnc2)c2ccc(OC)cc2)cc1	inactive: -16.2%
NC(N)=NCCCCN=C(N)N	inactive
COc1cccc(Cn2c(=O)c(-c3cccc(Cl)c3)nc3cncnc32)c1	inactive: 6.26%
C=CCN1[C@@H](C(C)C)COCCS1(=O)=O	inactive: 14%
Cc1cc(=O)c2c(O)cc(O)c(C)c2o1	inactive: -17%
O=C1Nc2ccc(Cl)cc2[C@@](C#CC2CC2)(C(F)(F)F)O1	inactive: -28.4%
O=C(NC[C@@H]1CCCN2CCCC[C@H]12)c1cnn(-c2nccc(-c3ccco3)n2)c1C1CC1	inactive: 15.9%
c1ccc2sc(N3CCN(Cc4ccc5c(c4)OCO5)CC3)nc2c1	inactive
N#CCCn1c(=O)c(-c2cc(F)cc(F)c2)nc2cnc(Oc3ccccc3)nc21	inactive: 2.31%
Nc1ccc(C(=O)O)c(O)c1	inactive
CN(Cc1ccco1)c1ncncc1-c1ccc2c(c1)OCO2	inactive: -2.58%
COc1ccc(CNc2cc(-c3ccccc3C)ncn2)c(OC)c1	inactive: -12%
CCOc1nc2cccc(C(=O)O)c2n1Cc1ccc(-c2ccccc2-c2nn[nH]n2)cc1	inactive: 9.91%
CS(=O)(=O)c1ccc(-c2cccc3c2OC(CNC(=O)c2cc(C4CC4)[nH]n2)C3)cc1 (configuration not stated)	inactive: 8.08%

Compound	activity change, negative = inhibition
O=C1CC[C@@H](O)CCN1CC[C@H](Sc1ccccc1)c1ccccc1	inactive: 1.68%
COc1ccccc1CN1CCCC2(CCN(C(C)=O)CC2)C1	inactive: 15.5%
CCCCCCCCCCCCCCCCCCNC(=O)OCC(COP(=O)([O-])OCC[n+]1ccsc1)OC (configuration not stated)	inactive: 27.5% [at 75.8 µM]
Cc1ncc(CO)c(CN)c1O	inactive: 6.02%
O=C(c1ccccc1)c1ccccc1	inactive: 18%
Cc1ccnc2ccc3ccccc3c12	inactive: 19.1%
O=C(Nc1cccc(F)c1)N1CC[C@@]2(CCCN(C(=O)c3cnccn3)C2)C1	inactive: 15%
COc1ncc2nc(-c3cn(C)c4ccccc34)c(=O)n(C)c2n1	inactive: 21.6%
CCCCN1CCCC[C@H]1C(=O)Nc1c(C)cccc1C	inactive: 10.2%
CN(C)c1ccc(-c2c(-c3ccc4c(c3)OCO4)noc2-c2ccsc2)cn1	inactive: -11.2%
CC(N)(C(=O)O)c1ccc(-c2nn[nH]n2)cc1 (configuration not stated)	inactive: 32.8%
O=C(NCC1CCC2(CCN(Cc3ccc4ncccc4c3)CC2)O1)C1CCCO1 (configuration not stated)	inactive: -3%
COc1ccc(C(=O)N(Cc2cc3cccc(C)c3nc2N(C)C)CC2CCCO2)cc1 (configuration not stated)	inactive: 2.57%
O=c1c(-c2cccs2)nc2cncnc2n1C1CC1	inactive: 17%
O=C(NCC1CCC2(CCN(Cc3cnn(-c4ccc(F)cc4)c3)CC2)O1)c1ccccc1 (configuration not stated)	inactive: -6.2%
O=C(Nc1ccccc1)C12CC1/C(=N\O)c1ccccc1O2 (configuration not stated)	inactive: 17.8%
CC(=O)Oc1ccc(C(c2ccc(OC(C)=O)cc2)c2ccccn2)cc1	inactive
CN(C)C(=O)COC(=O)Cc1ccc(OC(=O)c2ccc(N=C(N)N)cc2)cc1	inactive: 7.18%
Cc1ncc2c(c1CNC(=O)/C=C/c1cccs1)CCN(C(=O)c1noc3c1CCCC3)C2	inactive: 0.3%
O=c1c(CCc2ccccc2)nc2cnc(Oc3ccccc3)nc2n1C1CC1	inactive: -12%
CN1CCN(c2ncc3nc(-c4cccs4)c(=O)n(CCC#N)c3n2)CC1	inactive: -7.87%
Cc1cc(=O)[nH]c2cc(N)ccc12	inactive: 16.7%
N=c1nc(N2CCCCC2)cc(N)n1O	inactive

Compound	activity change, negative = inhibition
Cc1cnc(C(=O)NCc2c(C)ncc3c2CCN(C(=O)/C=C/c2cccs2)C3)cn1	inactive: 0.438%
CCCCS(=N)(=O)CCC(N)C(=O)O (configuration not stated)	inactive
CC(=O)O[C@H]1CC2(C)[C@@H](C[C@@H](O)[C@H]3[C@@]4(C)CC[C@@H](O)[C@@H](C)[C@@H]4CC[C@@]32C)C1=C(CCC=C(C)C)C(=O)O (some centres not stated)	inactive: -12.9% [at 75.8 µM]
COC(=O)C1CCCCN1Cc1ccc2c(c1)CN(C1CCSCC1)CCO2 (configuration not stated)	inactive: 2.04%
COc1cccc(OC)c1OCCNCC1CSc2ccccc2O1 (configuration not stated)	inactive: -10.9% [at 75.8 µM]
C[C@@H]1CN(c2c(F)c(F)c3c(=O)c(C(=O)O)cn(C4CC4)c3c2F)C[C@H](C)N1	inactive: 6.35%
CCC(C)(C)C(=O)O[C@H]1C[C@@H](C)C=C2C=C[C@H](C)[C@H](CC[C@@H]3C[C@@H](O)CC(=O)O3)[C@H]21	inactive: -6.87% [at 75.8 µM]
CC(C)[C@H]1COCCS(=O)(=O)N1Cc1ccccc1	inactive: -1.45%
CN(C)c1ccc(-c2cc(N(C)Cc3ccco3)ncn2)cc1	inactive: -15.6%
COc1ccc(C2Sc3ccccc3N(CCN(C)C)C(=O)C2OC(C)=O)cc1 (configuration not stated)	inactive: 11.3%
CCC(c1ccccc1)c1noc(CCN(CC)CC)n1 (configuration not stated)	inactive: 54.6%
CCCc1nn(C)c2c(=O)[nH]c(-c3cc(S(=O)(=O)N4CCN(C)CC4)ccc3OCC)nc12	inactive
CN1CCN(c2ncc3ncc(=O)n(C4CC4)c3n2)CC1	inactive: -9.67%
COc1cc(O)c(C(=O)/C=C/c2ccccc2)c(OC)c1	inactive: 11.3%
COc1cc(-c2noc(C)c2C#CC2(N)CCCCC2)cc(OC)c1OC	inactive: 1.83%
CN(C)C(=O)c1ccc(-c2nc(NC3CCNCC3)c3ccccc3n2)cc1	inactive: 5.81%
CCCCOC(=O)c1cc2c(cn1)[nH]c1ccccc12	inactive
O=C(O)COc1ccccc1/C=N/NC(=O)c1ccncc1	inactive: 10.1%
NC(=O)c1ncn(C2OC(CO)C(O)C2O)c1N (configuration not stated)	inactive: 9.96%
Cc1oc(-c2ccccc2NC(=O)C2CCCO2)nc1CNC(=O)c1[nH]c2c(C)ccc(C)c2c1C (configuration not stated)	inactive: 7.17%
CC(/C=C/C=C(\C)C(=O)O[C@@H]1O[C@H](CO[C@@H]2O[C@H](CO)[C@@H](O)[C@H](O)[C@H]2O)[C@@H](O)[C@H](O)[C@H]1O)=C\C=C\C=C(C)\C=C\C=C(/C)C(=O)O[C@@H]1O[C@H](CO[C@@H]2O[C@H](CO)[C@@H](O)[C@H](O)[C@H]2O)[C@@H](O)[C@H](O)[C@H]1O	inactive: 25%
